Data from the RNAGym collection of RNA variant scans (doi:10.1093/nar/gkz1192).
Read counts are not given, so values of variants with three or more changes are uncertain.

B1: CPEB3 Ribozyme (parent)
chain: UAACAGGGGGCCACAGCAGAAGCGUUCACGUCGCAGCCCCUGUCAGAUUCUGGUGAAUCUGCGAAUUCUGCUGUAUAUCUC

Variants of: B1
Assay: self-cleavage, relative activity (ratio to wild type); higher = more cleavage; in vitro, sequencing
Method in brief: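 Barcoded CPEB3 ribozyme mutants, produced by rounds of error-prone PCR, self-cleaved while being transcribed with T7 RNA polymerase for 5 hours at 37°C and during a subsequent 15 min DNase I step before EDTA was added. Sequencing of template-switched cDNA on Illumina gave cleaved and total reads, and DNA sequencing assigned barcodes to variants. Each variant's relative activity is its cleaved/total read fraction divided by the unmutated ribozyme's fraction, averaged across three batches. A variant needed a minimum of 5 reads.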

| Variant | self-cleavage |
| --- | --- |
| UAACAGGGGGCCACAGCAGGAGCGUUCCCGUCGCAGCCCCUGACAGAUUCUGGUGAAUCUGCAAAUCCUGCUGUAUAUCUC [A20G A28C U43A G63A U67C] | 0.39 |
| UAACAGGGGGCCACAGCAGCAGCGCUCACGUCGCGGCCCCUGUCAGAUUCUGGUGAAUCUGCGAAUCCUGCUGUAUAUCUC [A20C U25C A35G U67C] | 0 |
| UAACAGGGGGCCACAGCAUAAGCGGUCACGUCGCAGCCCCUGUCAGAUUCUGGUGAAUCUGCGAAUUCUGCUGUAUGUCUC [G19U U25G A77G] | 0.07 |
| UAACAGGGGGCCACAGCAGCAGCGUUCACGUCGCAGCCCCUGUCAGAUUCUGGUGAAUCUGCGUAUUCCGCUGCGUAUCUC [A20C A64U U69C U74C A75G] | 0.06 |
| UAACAGGGGGCCACAGCAGGGGCGUUCACGUCGCAGCCCCUGUCACAUUCUGGUGAAUCCGCGAACUCUGCUGUAUAUCUC [A20G A21G G46C U60C U66C] | 0.16 |
| UAACAGGGGGCCACAGCAGGUGCGUUCAUGUCGCAGCCCCUGUCAGACUCUGGUGAAUCUGCGAAUUCUGCUGUAUAUCUC [A20G A21U C29U U48C] | 0.18 |
| UAACAGGGGGCCACAGCAGCAGCGUUCACGUCGCAGCCCUUGUCAGAUUCUGGAGAGUCAGCGGAUUCUGCUGUAUAUCUC [A20C C40U U54A A57G U60A A64G] | 0.06 |
| UAACAGGGGGCCACAGCAUAAGCGUUCACGACGCAGCCCCUGUCAGAUUCUGGUGAAUCUGUGAAUUCUGCUGUAUAUCUC [G19U U31A C62U] | 0.1 |
| UAACAGGGGGCCACAGCAGCAGCGUUCGCGUCGCAGCCCCCGUCAGAUUCUGGUGAAUCUGCGAAUUCUGCUGUAUAUCUC [A20C A28G U41C] | 0.07 |
| UAACAGGGGGCCACAGCAGCAGCGUUCGCGUCGCAGCCCCUGUCAGAUUCUGGUGAAUCUGCGAAUUCUGCUGUAUACCUC [A20C A28G U78C] | 0.17 |
| UAACAGGGGGCCACAGCAGGGGCGUUCACGUCGCAGCCCCAGUCAGAUUCCGGUGAAUCUGCGACUUCUGCUGUAUAUCUC [A20G A21G U41A U51C A65C] | 0.14 |
| UAACAGGGGGCCACAGCAGCUGCGUUCACGUCGCUGCCCCUUUCAGAUUCUGGUGAAUCUGCGAAUUCCGCUGUAUAUCCC [A20C A21U A35U G42U U69C U80C] | 0.11 |
| UAACAGGGGGCCACAGCAGGUGCGUCCACGUCACAGCCCCUAUCAGAUUCUGGUGAAUCUGCGAAUUCUGCUGUAUAUCCC [A20G A21U U26C G33A G42A U80C] | 0.08 |
| UAACAGGGGGCCACAGCAUAAGCGUUCACGUCGCAGCCCCUGUCAGAUUCUGGUAAAUCUGCGAAUUCUGCUGUAUGUCUC [G19U G55A A77G] | 0.15 |
| UAACAGGGGGCCACAGCAGCAGCGCUCACGUCGCAGCCCCUGUCCGAUUCUGGUGAAUCUGCGAAUUCUGCUGUAUAUCUC [A20C U25C A45C] | 0.08 |
| UAACAGGGGGCCACAGCAUAAGCGUUCACGUCGCAACCCCAGUCAGAUUCUGGUGAAUCUGUGAAUUCUGCUGUAUAUCUC [G19U G36A U41A C62U] | 0.07 |
| UAACAGGGGGCCACAGCAGCAGCGAUCACGUCGCAGCCCCUGUCAGAUUCUGGUGAAUCUGCGAAUUCCGCUGUAUAUCUC [A20C U25A U69C] | 0.36 |

| Variant | self-cleavage |
| --- | --- |
| UAACAGGGGGCCACAGCAGCAGCGUUCACGUCGCAGCCCCUGUCAGAUUCUGGUGAAUCUGCGGAUCCUGCUGUGUAUCUC [A20C A64G U67C A75G] | 0.05 |
| UAACAGGGGGCCACAGCAGGGGCGUUCACGUCGCAGCCCCUGUCAGAUUCUGGUGUAUCUGCGAAUUCUGCUGUAUAUCUC [A20G A21G A56U] | 0.1 |
| UAACAGGGGGCCACAGCAGGGGCGUUCACGUCGCAGCCCCUGUCAGAUUCUGGUGAAUCUGCGAAUUCAGCUGUAUACCUC [A20G A21G U69A U78C] | 0.54 |
| UAACAGGGGGCCACAGCAGCAGCGUUCACGUCGCAGCCCCUGUCAGGCUCAGGUGAAUCUGCGAAUUCUGCUGUAUAUCUC [A20C A47G U48C U51A] | 0.23 |
| UAACAGGGGGCCACAGCAGCAGCGUUCACGUCGCAGCCCCAGUCAGGUUCAGGUGAAUCUGCGAAUUCUGCUGUAUAUCUC [A20C U41A A47G U51A] | 0.18 |
| UAACAGGGGGCCACAGCAGCAGCGUUCACGUCACAGCCCCUGUCAGAUUCUGGUGAAUCUGCGAACCCAGCUGCAUAUCCC [A20C G33A U66C U67C U69A U74C U80C] | 0.04 |
| UAACAGGGGGCCACAGCAGGGGCGCUCACGUCGCAGCCCCUGUCAGAUUCUGGUGAAUCUGCGAAUUCUGCUGUAUAUCUC [A20G A21G U25C] | 0.38 |
| UAACAGGGGGCCACAGCAGGGGCGUUCACUUCGCAGCCCCCGUCAGAUUCUGGUGAAUCUGCGAAUUCUGCCGUAUAACUC [A20G A21G G30U U41C U72C U78A] | 0.27 |
| UAACAGGGGGCCACAGCAUAAGCGCUCACGUCGCAGCCCCUGUCAGAUUCUGGUGAAUCUGCGAUUUAUGCUGUAUAUCUC [G19U U25C A65U C68A] | 0.15 |
| UAACAGGGGGCCACAGCAGGGGCGUUCACGUCGCAGCCCCUGUCAGAUUCUGGUGAAUCUGCGAAUUCUGCUGCAUAUCUC [A20G A21G U74C] | 0.75 |
| UAACAGGGGGCCACAGCAUAAGCGUCCACGUCGCAGCCCCUGUCCGAUUCUGGUGAAUCUGCGAAUUCUGCUGUAUAUCUC [G19U U26C A45C] | 0.15 |
| UAACAGGGGGCCACAGCAGGUGCGUUCUCGUCGCAGCCCCUGUCAGAUUCUGGUGAAUCUGCGGUUUCUGCUGUAUAUCCC [A20G A21U A28U A64G A65U U80C] | 0.09 |
| UAACAGGGGGCCACAGCAGCAGCGUUCACGUCGCGGCCCCUGACAGAUUCUGGUGAAUCUGCGUAUUCUGCUGUAUAUCUC [A20C A35G U43A A64U] | 0.27 |
| UAACAGGGGGCCACAGCAGCAGCGUUCACGUCGCAGCCCCUGUCAGAUUCUGGUGGAUCAGCGAAUUCUGCUGUAUAUCUC [A20C A56G U60A] | 0.21 |
| UAACAGGGGGCCACAGCAGGGGCGUUCACGUCGCAGCCACUGUCAGAUUCUGGUGAAUCUGCGAAUUCUGCUGUAUAUCUC [A20G A21G C39A] | 0.26 |
| UAACAGGGGGCCACAGCAUAAGCGUCCACGUCGCAGCCCCUGUCAGAUUCUGGUGAAUCUGCGUAUUCCGCAGUAUAUCUC [G19U U26C A64U U69C U72A] | 0.09 |
| UAACAGGGGGCCACAGCAGCAGCGUCCACGUCGCGGCCCCUGUCAGAUUCUGGUGAAUCUGCGAAUUCUGCUGUAUAUCUC [A20C U26C A35G] | 0.43 |
